Hit rate of the full screen: of about 310,000 compounds, about 14,000 (4.5%) showed an effect of 50% or more. The effect is printed as a negative number. This is one part of the list.
target: human ether-à-go-go-related gene (hERG) potassium channel (human, UniProt Q12809); test: primary screen, population patch clamp on CHO cells stably expressing hERG
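Note: peak tail current of the secondary pulse compared with the same well before compound.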

Chain of human ether-à-go-go-related gene (hERG) potassium channel (Q12809 whole entry, looked up): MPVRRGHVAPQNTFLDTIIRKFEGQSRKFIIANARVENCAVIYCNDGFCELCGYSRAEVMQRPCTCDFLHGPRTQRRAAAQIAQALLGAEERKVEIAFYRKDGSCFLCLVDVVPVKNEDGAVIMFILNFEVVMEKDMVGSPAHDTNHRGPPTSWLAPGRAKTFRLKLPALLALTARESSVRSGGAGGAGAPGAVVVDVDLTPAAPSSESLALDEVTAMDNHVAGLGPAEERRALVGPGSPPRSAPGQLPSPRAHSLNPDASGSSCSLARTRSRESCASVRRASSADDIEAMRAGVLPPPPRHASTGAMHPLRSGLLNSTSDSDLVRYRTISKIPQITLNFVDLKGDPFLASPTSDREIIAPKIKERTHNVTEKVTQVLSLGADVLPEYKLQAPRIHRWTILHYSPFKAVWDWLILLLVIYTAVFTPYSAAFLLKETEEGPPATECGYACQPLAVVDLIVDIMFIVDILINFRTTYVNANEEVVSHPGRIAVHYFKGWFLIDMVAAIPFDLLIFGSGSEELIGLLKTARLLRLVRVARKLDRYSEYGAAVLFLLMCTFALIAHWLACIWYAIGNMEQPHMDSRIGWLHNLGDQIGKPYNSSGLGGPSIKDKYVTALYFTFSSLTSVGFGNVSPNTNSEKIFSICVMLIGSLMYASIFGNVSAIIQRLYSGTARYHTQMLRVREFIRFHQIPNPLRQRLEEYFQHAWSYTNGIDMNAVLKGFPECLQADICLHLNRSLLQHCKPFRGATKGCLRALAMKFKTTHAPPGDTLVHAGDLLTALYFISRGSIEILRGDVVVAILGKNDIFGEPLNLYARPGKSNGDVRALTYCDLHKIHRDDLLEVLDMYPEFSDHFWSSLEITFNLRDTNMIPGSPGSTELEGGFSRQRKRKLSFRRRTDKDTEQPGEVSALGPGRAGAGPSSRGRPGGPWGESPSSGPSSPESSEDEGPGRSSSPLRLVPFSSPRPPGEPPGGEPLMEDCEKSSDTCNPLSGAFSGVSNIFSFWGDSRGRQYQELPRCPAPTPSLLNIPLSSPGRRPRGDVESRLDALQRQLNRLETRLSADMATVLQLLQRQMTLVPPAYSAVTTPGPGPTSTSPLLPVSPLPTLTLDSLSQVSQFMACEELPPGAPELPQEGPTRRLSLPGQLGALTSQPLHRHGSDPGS

| Structure (SMILES) | hERG current change (%, negative = inhibition) at 10uM |
| --- | --- |
| COCC1CCN(Cc2nc(COc3ccccc3)no2)C1 (centres unmarked) | 12.3% |
| COc1ccc(C)cc1NC(=O)CN1C(=O)COc2ccc(S(=O)(=O)N3CCCCCC3)cc21 | 21.8% |
| CCCCCCNc1nc(NCc2ccco2)nc(OCC)n1 | -28.9% |
| Fc1ccc(-c2nnc3ccc(N4CCc5ccccc5C4)nn23)cc1 | -24.4% |
| CC(OC(=O)c1nc(-c2ccccc2)n(-c2ccccc2)n1)C(=O)Nc1cc(Cl)cc(Cl)c1 (centres unmarked) | -6.35% |
| Oc1ccc2cc(Br)ccc2c1CN1CCCC1 | -11.1% |
| CCOc1ccc(S(=O)(=O)NCCC(=O)NCCCSc2ccccc2)cc1 | -6.32% |
| Cc1cccc(/N=C/c2c(O)ccc3oc4c(c23)CCCC4)n1 | 1.07% |
| COC(=O)c1ccc(NC(=O)C23CC4CC(C2)CC(n2cncn2)(C4)C3)cc1 | -22% |
| Br.Cc1csc(=Nc2ccccc2)n1CCO | -3.39% |
| O=C1Cc2cc(NS(=O)(=O)c3ccc(F)cc3)cc3c2N1CCC3 | -14.6% |
| O=[N+]([O-])c1cccc2ccc(/C=C/c3cccc(Br)c3)nc12 | 18.8% |
| O=C1N(CN2CCOCC2)c2ccccc2C1(O)c1c[nH]c2ccccc12 (centres unmarked) | 16.8% |
| N/C(CN1CCSCC1)=N\OCc1c(F)cccc1Cl | 7.15% |
| COc1cccc(CC(=O)OCC(=O)NC(C)c2ccc(F)cc2)c1 (centres unmarked) | 6.19% |
| Cc1ccc(C(=O)COc2ncnc3cc(Cl)ccc23)cc1 | -1.95% |
| COc1ccc([C@H]2CC(=O)C=C(c3ccc(C(F)(F)F)c(C(F)(F)F)c3)C2)cc1OC | 16.3% |
| Cn1c(=S)n(C)c2ccccc21 | 26.6% |
| NC(=NCCc1c[nH]c2ccccc12)NS(=O)(=O)c1ccc(F)cc1 | -4.37% |
| CCN(CC)S(=O)(=O)c1ccc(C)c(NC(=O)COC(=O)c2ccc(C)c(S(=O)(=O)N3CCOCC3)c2)c1 | -27.3% |
| CCn1cc(Br)c(C(=O)Nc2ccc(C(=O)OC(C)C)cc2)n1 | -3.53% |
| NC(=O)c1c(NC(=O)c2ccc(F)cc2Cl)sc2c1CCC2 | 8.82% |
| O=C(O)CN1C(=O)/C(=C\c2cc(Br)ccc2OCc2ccc(F)cc2)SC1=S | 3.09% |

| Structure (SMILES) | hERG current change (%, negative = inhibition) at 10uM |
| --- | --- |
| Cc1cccc(N=C2NC(=O)/C(=C/c3cccn3C)S2)c1 | 17.4% |
| Cn1ccnc1C(OC(=O)c1ccccc1)C(F)(F)F (centres unmarked) | 21% |
| COC(=O)C(Cc1ccccc1)NC(=O)CCc1c[nH]c2ccccc12 (centres unmarked) | -8.09% |
| Cc1cc(C)c2c(N)c(C(=O)c3cccc(Cl)c3)sc2n1 | 1.67% |
| CC(=O)N[C@H]1[C@H](OCc2ccccc2F)O[C@H](COC(C)=O)[C@@H](OC(C)=O)[C@@H]1OC(C)=O | 8.2% |
| O=C(NC1CC1)C1CCN(S(=O)(=O)c2cc(Cl)ccc2Cl)CC1 | 6.05% |
| CCc1nnc(NC(=O)c2nc(S(=O)(=O)Cc3ccccc3)ncc2Cl)s1 | 2.69% |
| COCCCNC(=O)C1CCC(=O)N(c2ccc3c(c2)OCO3)C1c1ccc(OC)cc1 (centres unmarked) | 14.8% |
| COc1ccc(C(CC(=O)Nc2cc([N+](=O)[O-])ccc2OC)c2ccccc2)cc1 (centres unmarked) | 8.82% |
| CC(C)c1ccc(C(=O)NCCCN(C)C)cc1 | -17.1% |
| CNc1ccc(Br)cc(C(=O)/C=C/c2ccc3c(c2)OCO3)c1=O | -10.8% |
| COc1ccc(CCNC(=O)c2ccccc2NS(=O)(=O)c2c(F)cccc2F)cc1 | 14.9% |
| CCOC(=O)COn1c(=O)c(=O)n(O)c2ccccc21 | 7.76% |
| Cl.c1ccc(CC2CCCNC2)cc1 (centres unmarked) | 6.14% |
| CN1CCN(c2ccc(CNS(=O)(=O)c3ccccc3)cc2)CC1 | 0.0513% |
| NS(=O)(=O)c1ccc(NC(=O)CSc2nc3ccccc3nc2N2CCOCC2)cc1 | 7.71% |
| COc1ccc(CCn2c(C3CCCCC3)nc3c(c(=O)c4ccccc4n3C)c2=O)cc1 | 4.13% |
| COc1ccc(C2CC(c3cccs3)=NN2C(=O)CSc2nnc(N)s2)cc1OC (centres unmarked) | -4.6% |
| O=c1ccnc(SCCc2ccc([N+](=O)[O-])cc2)[nH]1 | -34% |
| O=C(COc1ccc(C(=S)N2CCOCC2)cc1)Nc1ccccc1C(F)(F)F | -0.634% |
| CCCCn1c(SCc2cccc([N+](=O)[O-])c2)nc2ccsc2c1=O | 10% |
| O=C(CCC1CCN(Cc2ccc(Cl)cc2)CC1)NC1CC1 | -65.9% |
| C=CCSc1nnc(NC(=O)COc2ccccc2)s1 | -2.18% |

| Structure (SMILES) | hERG current change (%, negative = inhibition) at 10uM |
| --- | --- |
| Cc1ccc[n+](C2C(c3ccc([N+](=O)[O-])cc3)C(C#N)=C([S-])NC2(O)C2CC2)c1 (centres unmarked) | 0.00258% |
| CCOC(=O)c1nn(-c2sc(C(=O)OC)c(C)c2C(=O)OC)cc1O | 11.1% |
| NC(=O)c1ccccc1OCC(=O)Nc1cccnc1Cl | 6.5% |
| CCOC(=O)c1c(N)sc2c1CCCC2=O | 15.9% |
| CCCn1c(SCC(=O)Nc2cc(C(=O)O)ccc2C)nc2sc3c(c2c1=O)CCC3 | 7.84% |
| Cc1cccc(NC(=O)CN(C)S(=O)(=O)c2cccs2)c1 | 2.18% |
| COc1ccc(CCN=C2SCC(=O)N2C)cc1OC | -4.8% |
| CCOc1cc2c(cc1OCC)C(C(=O)O)C(c1cc(Br)c(O)c(OC)c1)N(C)C2=O (centres unmarked) | -3.42% |
| CN(Cc1ccccc1)C(=O)c1ccc(COc2ccccc2)cc1 | -0.833% |
| Cc1cc(-c2nnc(-c3cccc(C(F)(F)F)c3)o2)no1 | 3.54% |
| CC1CCC2(CC1)NC(=O)N(CC(=O)N1CCN(C(=O)c3ccco3)CC1)C2=O (centres unmarked) | -12.5% |
| Cn1cnnc1SCC(=O)Nc1ccccc1Sc1ccccc1 | -16.7% |
| O=C(NCCN1CCOCC1)/C(=C/c1ccc(Cl)cc1)NC(=O)c1ccccc1 | -76.5% |
| CCn1c(CC(=O)Nc2ccccc2OC)nnc1SCC(=O)Nc1ccccc1F | 6.94% |
| O=S(=O)(N1CCCCCC1)N1CCN(S(=O)(=O)N2CCOCC2)CC1 | -2.7% |
| COC(=O)CC1C(=O)NCCN1C(=S)NC(=O)C(c1ccccc1)c1ccccc1 (centres unmarked) | 9.05% |
| COc1ccccc1N1CCN(CC(O)c2c(C)[nH]c3ccccc23)CC1 (centres unmarked) | -49.1% |
| CC(N)Cc1c[nH]c2cc3c(cc12)OCCO3.Cl (centres unmarked) | 2.69% |
| Cc1cc(=O)[nH]c(SCC(=O)Nc2cc(S(=O)(=O)N3CCCC3)ccc2Cl)n1 | 10.1% |
| CCCCCCn1c(N2CCC(C(N)=O)CC2)nc2c1c(=O)[nH]c(=O)n2C | -49.9% |
| Cc1cccc(N2C(=O)CC(NNc3nc4ccccc4s3)C2=O)c1 (centres unmarked) | 10.6% |
| CC(C)Cc1nnc(NC(=O)C2CC(=O)N(Cc3ccccc3)C2)s1 (centres unmarked) | 0.385% |
| CCn1ncc(/C=N\NC(=O)COc2ccccc2)c1C | -4.07% |

| Structure (SMILES) | hERG current change (%, negative = inhibition) at 10uM |
| --- | --- |
| CC1(C)Cc2ccccc2-c2nnc(SCC(=O)Nc3nc4ccccc4s3)n21 | -74.4% |
| CCOC(=O)N1CCC(NS(=O)(=O)c2ccc(C)cc2)CC1 | 4.35% |
| CC(=O)Nc1ccccc1Nc1nc(NCCO)nc(N2CCCC2)n1 | 7.21% |
| CC(=O)Nc1ccc2[nH]c(C)c(CC=C(Cl)Cl)c(=O)c2c1 | 11.9% |
| FC(F)(F)c1cccc(NC(=S)NCCN2CCOCC2)c1 | -21.1% |
| COc1ccc(-c2noc(=O)n2Cc2ccccc2Cl)cc1 | -8.73% |
| COc1ccc(CCN2C(=S)N(C)C(=O)C2CC(=O)Nc2ccc(OC)cc2)cc1 (centres unmarked) | -8.73% |
| Cc1cc(C)n2nc(CCc3ccccc3)nc2n1 | -12.8% |
| Cc1ccc2nc(NCc3ccccc3)c(C=NCc3ccccc3)c(=O)n2c1 | 1.68% |
| Cc1ccc(O)c(Sc2cc(C)ccc2O)c1 | 6.41% |
| COc1ccc(NC(=O)NNS(=O)(=O)c2ccc(Br)cc2)cc1 | 25.3% |
| Cc1sc2ncn(CC(=O)N3CCOCC3)c(=O)c2c1-c1ccccc1 | 1.16% |
| Cc1cc(=O)[nH]c(SCC(=O)N2CCCC(C)C2)n1 (centres unmarked) | 11.3% |
| CNC(=O)c1cc(NC(=O)CCn2nc(-c3ccc(C)cc3)c3ccccc3c2=O)ccc1OC | 9.64% |
| CCN(CC)Cc1c(-c2ccccc2)[nH]c2ccc(C)cc2c1=O | -6.74% |
| CNC(=O)CC1C(=O)N(c2ccc(F)cc2)C(=S)N1NC(=O)c1ccc(Cl)cc1 (centres unmarked) | -3.12% |
| Cc1ccc(C2c3c(oc4ccccc4c3=O)C(=O)N2CCCN2CCOCC2)o1 (centres unmarked) | -5.18% |
| CCC(CC)C(=O)N1CCN(c2cccc(C)c2C)CC1 | 3.07% |
| COC(=O)c1c(NS(=O)(=O)c2cccs2)sc2c1CCCC2 | 4.33% |
| Cc1ccc2[nH]c(O)c(N=NC(=O)C(C)n3cnc4ccccc4c3=O)c2c1 (centres unmarked) | -10.4% |
